The results in this text go back to publication PMC10320511.

Chains of the proteins cited; added tags and fusions are not shown.
UniProt Q01371: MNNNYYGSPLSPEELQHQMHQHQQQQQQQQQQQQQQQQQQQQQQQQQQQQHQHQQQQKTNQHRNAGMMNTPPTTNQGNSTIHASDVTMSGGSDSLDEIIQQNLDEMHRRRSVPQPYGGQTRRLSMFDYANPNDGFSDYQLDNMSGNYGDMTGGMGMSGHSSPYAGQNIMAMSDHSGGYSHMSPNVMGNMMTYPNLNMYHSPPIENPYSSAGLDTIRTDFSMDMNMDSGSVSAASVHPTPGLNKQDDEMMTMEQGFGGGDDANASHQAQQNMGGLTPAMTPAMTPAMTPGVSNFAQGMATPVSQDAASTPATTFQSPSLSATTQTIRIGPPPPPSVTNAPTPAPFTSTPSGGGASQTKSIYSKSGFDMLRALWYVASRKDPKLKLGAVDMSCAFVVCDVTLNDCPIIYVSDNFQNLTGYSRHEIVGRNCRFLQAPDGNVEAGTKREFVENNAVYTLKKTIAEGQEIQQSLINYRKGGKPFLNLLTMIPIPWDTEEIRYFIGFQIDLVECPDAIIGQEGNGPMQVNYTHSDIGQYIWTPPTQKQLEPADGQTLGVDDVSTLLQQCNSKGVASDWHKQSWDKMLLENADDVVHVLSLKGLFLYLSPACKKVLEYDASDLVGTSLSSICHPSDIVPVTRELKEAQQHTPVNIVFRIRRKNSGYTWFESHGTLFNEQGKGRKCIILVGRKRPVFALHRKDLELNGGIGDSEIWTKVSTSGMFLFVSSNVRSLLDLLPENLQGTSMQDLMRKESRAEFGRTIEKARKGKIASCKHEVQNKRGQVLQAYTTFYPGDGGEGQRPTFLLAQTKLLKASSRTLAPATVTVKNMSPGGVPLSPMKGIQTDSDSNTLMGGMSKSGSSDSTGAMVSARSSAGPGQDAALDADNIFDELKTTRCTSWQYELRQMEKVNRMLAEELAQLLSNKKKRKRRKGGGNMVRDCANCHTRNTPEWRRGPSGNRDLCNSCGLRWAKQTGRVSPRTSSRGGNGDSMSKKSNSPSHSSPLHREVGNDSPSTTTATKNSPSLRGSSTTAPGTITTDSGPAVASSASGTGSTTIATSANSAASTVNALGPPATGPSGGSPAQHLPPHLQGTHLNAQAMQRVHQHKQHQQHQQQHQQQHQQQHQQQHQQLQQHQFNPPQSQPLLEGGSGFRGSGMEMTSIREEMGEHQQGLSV

Results are given in words; binding and its absence hold for the method and conditions named. In cells and extracts the contact can be indirect. Where a sequence is shown, tags or fusion partners need not be part of it.

Assay [1] has as its target T1, FRQ Δ775–800, V5H6-tagged (Neurospora crassa) (UniProt P19970).
T1 sequence: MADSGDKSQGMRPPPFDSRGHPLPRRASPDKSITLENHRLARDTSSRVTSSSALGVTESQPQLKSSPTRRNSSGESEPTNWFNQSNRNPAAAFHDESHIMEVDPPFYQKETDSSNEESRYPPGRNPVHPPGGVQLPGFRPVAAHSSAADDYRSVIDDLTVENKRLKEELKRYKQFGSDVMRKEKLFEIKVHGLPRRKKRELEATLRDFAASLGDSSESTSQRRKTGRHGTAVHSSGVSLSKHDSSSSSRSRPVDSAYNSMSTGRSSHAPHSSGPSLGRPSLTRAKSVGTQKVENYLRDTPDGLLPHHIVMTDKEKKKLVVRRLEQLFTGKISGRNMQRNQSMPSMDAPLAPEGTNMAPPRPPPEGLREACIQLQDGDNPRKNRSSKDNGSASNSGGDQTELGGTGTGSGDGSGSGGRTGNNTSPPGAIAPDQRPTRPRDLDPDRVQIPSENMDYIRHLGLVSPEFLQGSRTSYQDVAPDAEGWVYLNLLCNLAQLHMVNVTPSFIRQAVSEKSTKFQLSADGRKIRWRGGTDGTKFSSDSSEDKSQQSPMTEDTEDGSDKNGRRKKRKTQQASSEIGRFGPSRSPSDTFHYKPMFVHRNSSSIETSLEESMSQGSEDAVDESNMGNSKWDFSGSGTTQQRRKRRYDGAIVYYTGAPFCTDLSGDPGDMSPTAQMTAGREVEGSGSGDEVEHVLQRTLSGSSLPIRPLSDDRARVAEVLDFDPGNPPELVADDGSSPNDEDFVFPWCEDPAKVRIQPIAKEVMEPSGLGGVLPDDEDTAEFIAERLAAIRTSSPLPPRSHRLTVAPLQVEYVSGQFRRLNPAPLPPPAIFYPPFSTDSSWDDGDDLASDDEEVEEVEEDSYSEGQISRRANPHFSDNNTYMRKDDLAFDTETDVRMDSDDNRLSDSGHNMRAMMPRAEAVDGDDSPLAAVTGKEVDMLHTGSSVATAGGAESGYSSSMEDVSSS
The assay can be described thus: co-IP; V5H6-tagged FRQ (wild type or mutant) pulled down with V5 agarose from Neurospora lysate (cultures in the light, 25 °C); 50 mM Hepes pH 7.4, 137 mM NaCl, 10% glycerol, 0.4% NP-40; 4 °C, 2 h; Western blot with FRQ, FRH, WC-1 and WC-2 antibodies.

In assay [2] the target is T2, FRQ D660E, V5H6-tagged (Neurospora crassa) (UniProt P19970).
T2 sequence: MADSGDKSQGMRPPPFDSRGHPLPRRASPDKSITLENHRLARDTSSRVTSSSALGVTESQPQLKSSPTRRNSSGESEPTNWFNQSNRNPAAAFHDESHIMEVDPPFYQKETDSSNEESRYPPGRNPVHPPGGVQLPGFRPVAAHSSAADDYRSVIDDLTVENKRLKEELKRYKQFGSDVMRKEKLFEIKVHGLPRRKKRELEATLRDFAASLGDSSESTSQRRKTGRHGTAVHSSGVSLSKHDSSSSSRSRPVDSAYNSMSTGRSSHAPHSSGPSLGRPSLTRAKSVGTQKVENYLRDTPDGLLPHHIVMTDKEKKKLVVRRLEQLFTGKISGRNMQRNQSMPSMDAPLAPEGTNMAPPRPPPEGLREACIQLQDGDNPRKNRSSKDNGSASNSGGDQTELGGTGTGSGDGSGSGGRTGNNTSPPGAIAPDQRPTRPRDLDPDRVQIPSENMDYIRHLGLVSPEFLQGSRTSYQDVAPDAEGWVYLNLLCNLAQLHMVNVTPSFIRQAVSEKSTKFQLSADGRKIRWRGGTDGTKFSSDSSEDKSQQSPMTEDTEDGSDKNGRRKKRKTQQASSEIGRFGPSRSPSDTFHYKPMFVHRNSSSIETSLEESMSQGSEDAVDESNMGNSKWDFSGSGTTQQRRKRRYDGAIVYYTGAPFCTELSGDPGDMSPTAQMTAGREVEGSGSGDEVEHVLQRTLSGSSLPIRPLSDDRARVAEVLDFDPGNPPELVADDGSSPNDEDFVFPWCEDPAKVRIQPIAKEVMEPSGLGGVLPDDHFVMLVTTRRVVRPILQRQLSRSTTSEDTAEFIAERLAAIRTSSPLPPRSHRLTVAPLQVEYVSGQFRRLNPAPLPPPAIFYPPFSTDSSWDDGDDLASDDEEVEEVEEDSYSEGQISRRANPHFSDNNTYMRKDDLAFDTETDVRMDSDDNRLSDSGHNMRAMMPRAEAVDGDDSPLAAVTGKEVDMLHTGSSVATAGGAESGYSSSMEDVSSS
Described as above.

For the substance “White Collar-1 (WC-1) (from UniProt Q01371 1-1167)”, the binding entry in assay [1] and in assay [2] was “no binding” throughout.
